From the supplement of paper PMC3334620
Whole data set: some 33,000 sequences, median “E-score (-0.5 to 0.5)” near -0.035, cut for the highest 2% near 0.34. The list shows a part of the results.

molecular target: T1, Mot3 (UniProt P54785); assay: PBM E-score (8-mer binding enrichment) (E-score (-0.5 to 0.5)); higher = stronger / more preferred TF binding; most listed sequences are background and not binding sites; conditions: protein concentration: 200 nM; construct: GST-full length
T1 sequence: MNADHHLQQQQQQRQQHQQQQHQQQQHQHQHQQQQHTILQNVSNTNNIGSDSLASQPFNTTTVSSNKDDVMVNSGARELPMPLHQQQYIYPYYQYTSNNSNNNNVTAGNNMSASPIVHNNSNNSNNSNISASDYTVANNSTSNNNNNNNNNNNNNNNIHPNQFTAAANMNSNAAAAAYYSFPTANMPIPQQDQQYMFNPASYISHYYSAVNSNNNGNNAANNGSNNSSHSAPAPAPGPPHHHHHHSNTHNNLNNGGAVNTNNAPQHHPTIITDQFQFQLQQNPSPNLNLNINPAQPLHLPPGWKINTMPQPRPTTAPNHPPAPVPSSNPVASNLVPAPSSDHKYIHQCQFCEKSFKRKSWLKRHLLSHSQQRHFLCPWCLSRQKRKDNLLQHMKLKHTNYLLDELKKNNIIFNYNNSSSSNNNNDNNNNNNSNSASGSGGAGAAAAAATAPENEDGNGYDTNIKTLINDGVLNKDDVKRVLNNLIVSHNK
Outline: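 The E-score, a modified Wilcoxon-Mann-Whitney statistic, was computed by the Universal PBM Analysis Suite for every ungapped eight-base word pooled with its reverse complement. Scans behind it were normalised with masliner after bound GST-tagged yeast transcription factors were detected with fluorescent anti-GST. The proteins, at about 100-200 nM, had been applied to universal all-10-mer Agilent arrays made double-stranded by primer extension.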

Sequence | PBM E-score
ACATCATA | 0.119
CCATCCCC | -0.185
CACATGCG | 0.108
AGCGTGGG | -0.307
AATTAGCC | -0.134
AGATTATG | 0.0857
ATTACGAG | 0.275
CCGGTCCC | -0.277
CTCTTAGA | 0.0357
TCGTCACA | -0.036
AGAAAAAC | 0.061
ATAAGTAA | 0.151
CCTCTTCA | -0.171
GTGAGCCA | -0.12
ATAAATAA | 0.12
CAATGGAA | 0.0358
ACGGTTTG | -0.0879
AACTTGCA | -0.105
GCCCCTGA | -0.189
CCGTGAAA | 0.0176
CTTTACTA | 0.235
CGGGATCC | -0.271
CCACTTTC | -0.131
ACAGGCCC | 0.0653
AACTAAAT | -0.0125

Sequence | PBM E-score
AATCACCA | -0.0388
AGATACGA | -0.0356
ATGGGCTG | -0.181
CACTAGCA | -0.0744
GTAACGAC | -0.0159
CATTCTTC | -0.0746
TACCAAAA | 0.144
AGTGGCGG | -0.195
CGAACCGA | -0.023
TAGCTCCA | -0.00582
TCGTGCCA | -0.155
CAGCCCAA | -0.0603
CCCACTGC | -0.32
GGCCACGA | -0.096
TCGGCCAA | -0.137
CGAATGGC | -0.189
CAGGGACG | 0.0493
CTAAAGAG | -0.121
CTAGACGC | -0.206
CATAGCAC | -0.0243
AACATGTG | 0.278
CGGTGACA | -0.144
CCCCGACG | -0.206
CTAAACAG | -0.0477
AACCCGCG | 0.117

Sequence | PBM E-score
CCGTACCA | -0.0244
CGTTACCA | 0.0991
ATTACTTA | 0.146
CTTATTTC | 0.0522
CCGGTTTA | -0.141
AGGCCAGA | -0.0549
CATTTAAA | 0.0821
CCACCGGG | -0.331
GTCATAAC | 0.0307
CATCACTA | 0.0413
GAATCATA | -0.0348
AAAAGTGC | -0.0352
GCACCGAC | -0.0737
AGTTTTTG | 0.0757
GATTTACA | 0.332
AGATAACG | 0.088
GGATTAGA | -0.13
CACTACGA | 0.0203
GAAGCTGA | -0.00783
GAACGACA | 0.0296
GCCTCCCA | -0.0636
GGCAGGAC | -0.14
CATAATGC | -0.0264
CACTGTAC | -0.0818
ACGTTGCT | 0.0179

Sequence | PBM E-score
GCGTGACA | 0.0371
CTGCTATA | -0.0552
CCTAAGCA | -0.12
CATTCCCC | -0.157
CGGTTTTA | -0.158
ACCATGTC | 0.223
CAATCGAG | -0.403
GCGCTGCC | -0.186
GAAATGCA | -0.0288
CGACGGCA | -0.155
AAGCTCTA | 0.0454
ATCACGGG | -0.25
CCGAATTC | -0.242
GGTAATTA | 0.217
GACATGAC | 0.175
GGAAGTAA | -0.0559
CGCTGGAA | -0.301
GACATTCA | 0.0236
CGCGCTGA | -0.119
AGCAGTCC | -0.206
CCGTATGA | -0.0739
GTACACGA | 0.327
TTACTGAA | 0.128
ATAGATAC | 0.0299
CGCCTTAC | 0.0872

Sequence | PBM E-score
GAAAAGAC | 0.00906
CAAAAGGG | -0.0933
TCTGCTCA | -0.261
GAAAAAAA | 0.114
CCGGTTTC | -0.155
AGGCCCTG | 0.0149
GACAAATC | -0.0753
CTAAGACA | 0.0823
CCTGCGTA | 0.304
AACTGTTA | 0.0765
AACCGAGT | -0.224
CAAAGCTG | 0.0231
AAGGTTAT | 0.0647
GGCATACC | -0.0991
ATATGAGC | -0.232
CAATAAGC | -0.159
AGTAGTAC | 0.188
GCATCGCC | -0.153
GACCGAAC | -0.0324
ATGAGACA | -0.0369
AGTGCGTG | -0.0225
GAGTGGCC | -0.293
AATGGTTC | 0.182
ACACGTCG | 0.233
GGCAAAGA | 0.157

Sequence | PBM E-score
TATGCGCA | -0.18
AAGGTAAG | 0.27
GTGACTTA | 0.127
ACGCCTGA | 0.207
CATTTGGC | 0.0177
GACGGCAA | 0.00196
CGCAAGCC | 0.0673
ACTTTCCT | 0.383
ATGACTTC | -0.073
CCCAATTC | 0.143
AGTAAGGA | -0.00567
TAACCCAA | 0.0504
CGTCGAGC | -0.0948
TCATGGCA | -0.284
GGCAGGGA | -0.158
ACGCGACC | 0.112
CAATCGCG | -0.0227
CATTATAG | 0.0628
GCAGTTAC | 0.0241
ACCGTTAC | -0.0628
GACGCCTC | 0.0387
GGGAATTA | 0.098
CACTCTAA | -0.144
CGTAGCTC | -0.0378
AAGAAGGC | 0.193

Sequence | PBM E-score
CATTTAAG | -0.00232
GTAAAGAA | 0.279
CGAATGAC | 0.186
CCTCATCA | 0.0473
TCGATTCA | 0.0298
ATACGAAT | 0.0856
CCCACGCC | -0.154
ATCTCTCG | -0.0893
GTTACAGA | -0.0831
GACCTTGC | -0.156
GCATAGCA | 0.0235
AAGTTTAT | 0.0421
AGGTGCAC | -0.0519
AAACTCCT | -0.183
AATATAGA | 0.114
ACAGAAAA | 0.0442
CCGCAAGA | -0.238
AGATCATA | 0.11
CACCCATG | 0.0598
CACTACTA | -0.0102
ATTCGCAA | 0.0104
AAAGGCAA | 0.486
GTATCCCA | -0.0988
GGGGTCTA | -0.0481
ATCCTATA | 0.0259

Sequence | PBM E-score
ATGTCCAC | -0.0166
GACCGTAC | -0.159
CACTGAAA | 0.107
CAAGTCCC | -0.248
GTGGGACA | -0.0726
ACGTCACC | -0.127
CGATAATC | -0.267
GATTACAC | 0.419
GCAAGGGA | -0.155
ATATTATC | -0.0118
ACCTTCAC | 0.175
AGCGGGTG | -0.109
CTAGGCCC | -0.21
CATAGCCA | -0.201
AGTCGCTA | 0.0503
GTCGCCTA | 0.106
AGCGAGCA | -0.108
CGAGCCAA | -0.107
CCACGGAC | -0.286
ACACCAGG | -0.057
AAATCAAC | 0.0454
CTCGCTCC | -0.139
ACGCGGGC | 0.128
AATACGCA | 0.275
AGGTATTC | 0.21

Sequence | PBM E-score
GTTATGCA | 0.0433
AAAAAACA | 0.252
ACCCGGAC | -0.146
ATTATCTA | 0.193
GACATGTC | 0.191
GGATCCGA | -0.291
GGCTACCC | -0.196
ATCATACC | 0.0808
GAAGGCGA | -0.0248
CCCGTGTA | 0.376
CAGAGCGG | -0.172
AGTTGTTG | 0.197
CCTGCCTA | 0.244
ATATACTA | 0.0627
TCAGTCGA | -0.176
CCTGAGAA | 0.173
AAGAAACG | 0.0311
CCCGGAAC | -0.206
AACTGTAA | 0.127
